Measured values published in article PMC4336329 (PLoS ONE, 2015).
Hit rate of the full screen: of about 310,000 compounds, about 2,200 (0.71%) showed an effect of 50% or more. Effects have a minus sign here. Some of the results follow.

Each compound was assayed against human ether-à-go-go-related gene (hERG) potassium channel (human, UniProt Q12809) (assay: primary screen, population patch clamp on CHO cells stably expressing hERG).
Chain of human ether-à-go-go-related gene (hERG) potassium channel (Q12809 whole entry, looked up): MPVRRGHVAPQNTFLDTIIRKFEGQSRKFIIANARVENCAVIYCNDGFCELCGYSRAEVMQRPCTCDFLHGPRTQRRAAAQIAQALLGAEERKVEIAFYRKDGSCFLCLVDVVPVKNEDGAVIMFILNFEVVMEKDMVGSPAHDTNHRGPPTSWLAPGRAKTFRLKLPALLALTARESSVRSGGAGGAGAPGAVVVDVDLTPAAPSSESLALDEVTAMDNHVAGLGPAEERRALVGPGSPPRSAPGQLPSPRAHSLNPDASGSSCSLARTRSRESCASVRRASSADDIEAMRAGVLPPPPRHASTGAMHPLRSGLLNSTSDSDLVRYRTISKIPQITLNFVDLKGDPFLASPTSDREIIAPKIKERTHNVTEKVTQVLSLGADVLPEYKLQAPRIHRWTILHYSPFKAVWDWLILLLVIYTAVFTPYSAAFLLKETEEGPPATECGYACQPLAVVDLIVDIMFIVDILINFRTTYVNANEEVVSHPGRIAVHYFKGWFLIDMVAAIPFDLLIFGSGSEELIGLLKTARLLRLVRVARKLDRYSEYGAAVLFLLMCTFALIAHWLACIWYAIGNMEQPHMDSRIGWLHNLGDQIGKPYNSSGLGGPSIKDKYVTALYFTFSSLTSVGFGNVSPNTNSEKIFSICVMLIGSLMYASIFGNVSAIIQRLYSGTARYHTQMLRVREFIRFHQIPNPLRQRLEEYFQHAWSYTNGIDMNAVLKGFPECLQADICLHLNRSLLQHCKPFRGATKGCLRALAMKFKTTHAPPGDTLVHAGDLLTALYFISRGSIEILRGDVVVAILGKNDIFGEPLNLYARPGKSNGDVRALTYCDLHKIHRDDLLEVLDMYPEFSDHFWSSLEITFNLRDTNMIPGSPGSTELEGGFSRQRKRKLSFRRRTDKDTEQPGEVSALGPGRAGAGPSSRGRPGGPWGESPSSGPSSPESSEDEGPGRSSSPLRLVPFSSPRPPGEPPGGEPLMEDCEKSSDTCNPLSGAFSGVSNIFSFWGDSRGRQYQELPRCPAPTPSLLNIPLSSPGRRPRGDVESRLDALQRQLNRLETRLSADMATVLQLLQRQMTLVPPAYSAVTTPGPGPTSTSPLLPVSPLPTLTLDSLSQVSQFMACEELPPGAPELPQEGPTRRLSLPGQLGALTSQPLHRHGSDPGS

Row | Compound | hERG current change (%, negative = inhibition) at 1uM
1 | Cc1ccc(S(=O)(=O)N2CC3CCCN3c3ccc(C(F)(F)F)cc32)cc1 (stereo not shown) | 17%
2 | O=C(Cc1n[nH]c(=O)c2ccccc12)OCC(=O)c1ccccc1Cl | 13.4%
3 | CC(=O)N1CCN(c2nc3ccc([N+](=O)[O-])cc3s2)CC1 | -23.4%
4 | COc1ccc(-n2c(CN3CCN(Cc4ccccc4)CC3)nc3ccc([N+](=O)[O-])cc3c2=O)c(OC)c1 | -2.62%
5 | C=CCNc1nnc(Sc2ncccc2[N+](=O)[O-])s1 | 0.269%
6 | CCCCOCCCNC(=O)CCCOc1ccccc1 | 5.94%
7 | CCCN(CC(=O)Nc1ccccc1OC)C(=O)c1cccc(S(=O)(=O)Nc2ccc(OC)cc2)c1 | 4.66%
8 | COc1ccc(Cl)cc1C(=O)NCC(c1ccco1)N1CCCC1 (stereo not shown) | -5.3%
9 | O=S(=O)(c1ccccc1)c1cnn(-c2ccccc2)c1-c1ccc(F)cc1 | -1.73%
10 | O=C(c1ccc(S(=O)(=O)N2CCCCCC2)cc1)N1CCN(c2ccccc2F)CC1 | -5.61%
11 | Cc1ccc2c(c1)C(=O)OC1(O)C3C4C=CC(C4)C3C(=O)N21 (stereo not shown) | 7.25%
12 | CC(=O)Nc1ccc(C(=O)n2nc(C)cc2C)cc1 | 15.9%
13 | COc1ccc(C2C(C(=O)O)CC(=O)N2C2CCCCC2)cc1 (stereo not shown) | 6.04%
14 | CCn1c(SCC(=O)NCc2ccccc2)nc2ccccc2c1=O | -5.06%
15 | CC(C)Nc1nc(-c2ccncc2)nc(-c2ccccc2)c1C#N | 14.8%
16 | COc1cc(CCC(=O)NNC(=O)c2ccc(Cl)cc2)cc(OC)c1OC | 11.7%
17 | Cc1ccc(S(=O)(=O)N2CCN(C(=O)CSc3ncc(C(F)(F)F)cc3Cl)CC2)cc1 | 11.1%
18 | Cc1cc(C)cc(NC(=O)c2oc3ccccc3c2COc2ccccc2)c1 | 4.28%
19 | O=C(COC(=O)C1CCN(c2ccc(C(F)(F)F)cn2)CC1)Nc1cccc(F)c1 | 13.1%
20 | Cc1cc(C)n2nc(-c3sccc3-n3c(C)ccc3C)cc2n1 | 14.5%
21 | S=C(NCCc1ccccc1)N/N=C/c1cccc(Cl)c1Cl | 17.5%
22 | CCN1C(=O)CSc2ccc(C(=O)NC3CCCCC3)cc21 | -0.69%

Row | Compound | hERG current change (%, negative = inhibition) at 1uM
23 | COCCOc1cc(-n2ccnc2SC)c(Cl)cc1Cl | 2.27%
24 | COCCOC(=O)c1c(NC(=O)CNc2ccc(C)c(F)c2)sc(C(N)=O)c1C | 11%
25 | Cc1noc(C)c1S(=O)(=O)N(CC(=O)N1CCn2c1nc1ccccc12)c1ccc(C(C)C)cc1 | -4.05%
26 | CCOC(=O)N1CCN(C(=O)COC(=O)c2ccc(S(=O)(=O)N(CC)CC)cc2)CC1 | 2.87%
27 | CCn1c(C)c(C(C)=O)c(N2CCN(c3cccc(Cl)c3)CC2)nc1=S | 12.1%
28 | O/N=C/c1cc2ccccc2n1Cc1ccccc1F | 13.7%
29 | NC(=O)c1cccnc1Oc1ccc(Cl)cc1Cl | 2.2%
30 | COc1cc(NC(=O)CCc2ccccc2)nc(OC)n1 | -14.1%
31 | Cc1cc(C)cc(C(=O)OCC(=O)Nc2ncccn2)c1 | 9.73%
32 | CCn1cc(S(=O)(=O)c2ccc(OC)cc2)c(=O)c2cc(F)c(N3CCN(C)CC3)cc21 | -0.995%
33 | CN(CC(=O)Nc1cccc(F)c1)C(=O)CCc1nc2cc(S(=O)(=O)N3CCOCC3)ccc2n1C | 6.21%
34 | CC(C)OP(=O)(OC(C)C)C(Nc1ccccc1)c1cccc2c1OCO2 (stereo not shown) | 11.2%
35 | COc1cc2c(cc1OC)CN(Cc1cccs1)CC2 | -14.9%
36 | N#C/C(=C\N1CCN(Cc2ccc3c(c2)OCO3)CC1)c1nc2ccccc2s1 | -16.4%
37 | Cc1cc(C)c(C(=O)Cn2cnc3cc([N+](=O)[O-])ccc3c2=O)cc1C | 8.64%
38 | COc1ccc(C(=O)CC(=O)Nc2ccc([N+](=O)[O-])cc2)cc1 | 11.7%
39 | COc1ccc(C)cc1S(=O)(=O)N(C)CC(=O)NC1CCCCCC1 | 13.6%
40 | COc1ccc(Br)cc1CN(C)C(=O)c1ccc2c(c1)NC(=O)C(C)S2 (stereo not shown) | 14.4%
41 | CCOc1ncccc1C(=O)OCC(=O)Nc1cc(S(=O)(=O)N2CCOCC2)ccc1Cl | 0.816%
42 | COc1ccc(C(=O)N2CCC(C(=O)Nc3cccc(C)c3)CC2)cc1OC | -9.67%
43 | O=C(O)c1ccc(NS(=O)(=O)c2ccc(Cl)c(Cl)c2)cc1O | 2.76%
44 | CSc1ccc(CN2CCN(C(=O)c3ccc([N+](=O)[O-])cc3)CC2)cc1.O=C(O)C(=O)O | -78.1%

Row | Compound | hERG current change (%, negative = inhibition) at 1uM
45 | CCOc1ccc(CCNC(=O)Cc2ccc(NC3=NC4CS(=O)(=O)CC4S3)cc2)cc1OCC (stereo not shown) | 34.2%
46 | COc1ccc(CNC(=O)C2COc3ccccc3O2)c(OC)c1 (stereo not shown) | -12.8%
47 | C=CCNc1nc(Cl)nc(NCc2ccco2)n1 | 17.4%
48 | O=C(COc1ncnc2c(Cl)cc(Cl)cc12)N1CCCCC1 | -0.238%
49 | CCOC(=O)N1CCN(S(=O)(=O)c2cc(OCC(N)=O)c(C)cc2Cl)CC1 | 10.1%
50 | CSCCC(NC(=O)c1ccccc1Br)C(=O)NCC(c1ccco1)N1CCCCC1 (stereo not shown) | -12.2%
51 | Nc1c(C(=O)Nc2ccccc2F)sc2nc(Cc3ccccc3)cc(C(F)(F)F)c12 | 8.22%
52 | NC(=O)c1cccnc1Nc1ccccc1F | 12.4%
53 | Cc1c(C#N)c(O)[nH]c(=O)c1N=Nc1ccc(Br)cc1C(=O)O | 22.1%
54 | Cl.NCCS | 8.37%
55 | CC(/C=N/n1c(-c2ccc(C)cc2)n[nH]c1=S)=C\c1ccco1 | 9.27%
56 | COc1cc(C2C(C#N)=C(N)OC3=C2C(=O)CCC3)cc(OC)c1OC(=O)N1CCOCC1 (stereo not shown) | -8.34%
57 | O=C(NC(Cc1ccccc1)C(=O)O)/C(=C/c1ccco1)NC(=O)c1cccc([N+](=O)[O-])c1 (stereo not shown) | 16.8%
58 | COc1cc2c(cc1OC)CN(C(=O)/C=C/c1cccc([N+](=O)[O-])c1)CC2 | 8.85%
59 | CCO[C@H]1OC(C(=O)NCc2ccccc2)=C[C@@H](c2cn(C(C)=O)c3ccccc23)[C@@H]1CCCO | -8.22%
60 | O=C(Nc1ccc(Cl)c(Cl)c1)N1CCC(N2CCCCC2)CC1 | -36.3%
61 | COc1ccc(N2CCN(C(=O)c3ccc(SC)cc3OC)CC2)cc1 | -34.5%
62 | O=C(Nc1ccccc1C(=O)Nc1ccccc1)c1ccco1 | 10.4%
63 | Cc1cc(C(=O)N/N=C2\CCCC(C)C2)n[nH]1 (stereo not shown) | 11.6%
64 | Nc1c(-c2cccc(Cl)c2)cnn1-c1cccc(C(F)(F)F)c1 | 1.2%
65 | CCCSc1ccc(-c2nn(-c3ccccc3)cc2/C=C(/C#N)C(=O)N2CCOCC2)cc1 | 7.13%
66 | COc1ccc(Oc2nc3ccccc3nc2C(F)(F)F)cc1 | -3.01%

Row | Compound | hERG current change (%, negative = inhibition) at 1uM
67 | NC(=O)c1cc(Cl)ccc1OCC(=O)N1CCCc2ccccc21 | 11.4%
68 | CCC(C)Nc1nc(OCC(F)(F)F)nc(OCC(F)(F)F)n1 (stereo not shown) | 8.89%
69 | O=[N+]([O-])c1ccc(C[n+]2c(-c3ccccc3)cc(-c3ccccc3)cc2-c2ccccc2)cc1.[O-][Cl+3]([O-])([O-])[O-] | 7.61%
70 | COc1ccc(C(=O)CC2C(=O)N(C)C(=O)N(C)C2=O)cc1 | 3%
71 | COc1ccc(Cn2c(C)c(C)c(C#N)c2NC(=O)Nc2ccc(F)cc2)cc1 | 7.3%
72 | Cn1c(CCc2ccccc2)n[nH]c1=S | 9.71%
73 | C/C(=N\NC(=O)COc1ccc(C(C)(C)C)cc1)c1ccc(N2CCOCC2)cc1 | 0.176%
74 | COC(=O)c1cc(C(=O)c2cccc(Cl)c2Cl)cn1C | -5.2%
75 | Cc1ccc(-n2cc(-c3ccccc3)c3c(N4CCN(C)CC4)ncnc32)cc1 | 11%
76 | CN(C(=O)COC(=O)c1cn(-c2ccccc2)nc1-c1ccccc1)C1CCS(=O)(=O)C1 (stereo not shown) | 9.05%
77 | CN1C(=O)/C(=N/OC(=O)c2ccccc2Br)c2ccccc21 | 9.78%
78 | O=C(COc1ccccc1)N1CCCC1 | 19%
79 | CCC1Oc2nc(SC)nnc2-c2ccccc2N1C(=O)c1ccccc1 (stereo not shown) | 11.8%
80 | NNCCc1ccccc1.O=S(=O)(O)O | 9.6%
81 | CCN1C(=O)[C@H]2[C@@H](c3ccc(C)cc3)N3C(=O)N(c4ccc(C(F)(F)F)cc4)C(=O)[C@@]3(Cc3ccccc3)[C@H]2C1=O | 12.6%
82 | COc1ccccc1C(=O)NC(C)C(c1cccs1)N1CCOCC1 (stereo not shown) | 12%
83 | Cc1ccc(-n2c(=O)c3ccccc3n(CC(=O)NCc3ccco3)c2=O)cc1 | 10.8%
84 | CCOc1ccccc1NC(=O)c1ccc2nc[nH]c2c1 | 17.3%
85 | COc1c(Cl)cc(Cl)cc1/C=N/NC(=O)c1nnn(-c2nonc2N)c1CN1CCC(C)CC1 | 19.9%
